# Among all 370,000 compounds or so, about 150 (0.041%) were called active. Inconclusive results, whose numbers are uncertain, are shown with a selection of clear calls. Calls follow the shape of the dose curve; as a rule, active = well fitted inhibition curve with a large enough effect; inconclusive = small, poorly fitted or top-dose-only effect; inactive = flat fitted curve, though single readings scatter. Potencies of inconclusive entries are left out as doubtful fits.
# Target: Beta-lactamase (Escherichia coli (strain K12)) (UniProt P00811)
# Assay: qHTS Inhibitors of AmpC Beta-Lactamase (assay with detergent); also: nearly all actives have a fitted effect of over 25% in size;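 as to activity change, negative = inhibition: 0% = no-compound wells and -100% = no-enzyme wells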
# Details: AmpC hydrolysis of nitrocefin, absorbance 480 nm, 0.01% Triton; activity change, negative = inhibition: at 114 µM (top of the series)
# In short: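 AmpC (5.3 nM in the dispensed reagent) in 20 mM phosphate pH 7.0 with 0.01% (detergent screen) or 0.0001% Triton X-100 was preincubated with compounds for 15 min at room temperature. Nitrocefin was then added from an 800 uM solution, and hydrolysis was followed at 480 nm.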
# Potency is read from the fitted curve at half-maximal effect; tags tell the direction and shape of the fitted curve.
# UniProt P00811, sequence (P00811 whole entry, looked up): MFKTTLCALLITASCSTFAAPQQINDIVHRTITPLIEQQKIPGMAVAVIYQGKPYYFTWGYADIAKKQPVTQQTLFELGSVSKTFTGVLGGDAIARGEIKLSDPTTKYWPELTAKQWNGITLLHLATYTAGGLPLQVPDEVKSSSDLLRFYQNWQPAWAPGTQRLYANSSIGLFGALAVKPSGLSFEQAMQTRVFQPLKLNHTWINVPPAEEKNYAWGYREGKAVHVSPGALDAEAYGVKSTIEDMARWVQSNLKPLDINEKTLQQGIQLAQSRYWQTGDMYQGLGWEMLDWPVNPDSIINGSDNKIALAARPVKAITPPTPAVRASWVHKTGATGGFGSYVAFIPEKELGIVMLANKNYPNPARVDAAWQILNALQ
SMILES,Potency,"activity change, negative = inhibition"
O=C1CC(N2CCN(c3ccc(O)cc3)CC2)C(=O)N1Cc1cccs1 (stereo not drawn),"inconclusive [inhibitor, full curve, poor fit]",
CC(=O)C1=C(C)N(CC2CC2)C(=O)N[C@H]1c1cccs1,"inconclusive [inhibitor, full curve, poor fit]",
CCOC(=O)c1sc2nc(C(C)C)c3c(c2c1N)CCC3,"inconclusive [inhibitor, partial curve]",
CCOC(=O)c1c(C)[nH]c(C(=O)OCc2ccccc2)c1C,,inactive: 6.27%
CC(C)Oc1ccc(CNC(=O)Cn2c(=O)c3cccn3c3cccnc32)cc1,,inactive: 3.7%
Cc1ccccc1OCc1nnc(SCC(=O)Nc2ccc3c(c2)oc2ccccc23)n1C,"inconclusive [inhibitor, partial curve]",
COCCCNC(=O)Cn1cc(C(C)=O)c2ccccc21,"inconclusive [inhibitor, full curve]",
COc1cccc(NC(=O)CSc2nccn(-c3ccc4c(c3)OCCO4)c2=O)c1,"inconclusive [inhibitor, partial curve, poor fit]",
O=C(COc1ccccc1)NC1CCCCC1,"inconclusive [inhibitor, full curve, poor fit]",
COc1ccc(Nc2ccc(N3C(=O)CCCC3=O)cc2[N+](=O)[O-])cc1OC,"inconclusive [inhibitor, single point]",
O=C(NCc1ccco1)c1ccc(Cn2c(=O)c3sccc3n(Cc3ccc(F)cc3)c2=O)cc1,"inconclusive [inhibitor, full curve, poor fit]",
CS(=O)(=O)NCCSc1cc(C(F)(F)F)nc2ccccc12,,inactive: -0.0859%
COc1cc(CN2CCN(C(=O)CC(C)C)CC2)c([N+](=O)[O-])cc1OC,"inconclusive [inhibitor, full curve, poor fit]",
Cc1nc2ccccc2c(=O)n1NC(=O)c1ccc(C(C)(C)C)cc1,,inactive: -2.64%
Cc1ccc(NC(=O)CCN2C(=O)c3ccncc3C2=O)cc1,"inconclusive [inhibitor, full curve, poor fit]",
COc1ccc(CNC(=O)C(=O)NCC2OCCN2S(=O)(=O)c2cccs2)cc1 (stereo not drawn),"inconclusive [inhibitor, full curve]",
O=C(O)/C=C/C(=O)Nc1ccccc1SC(F)(F)F,"inconclusive [inhibitor, single point]",
CCOc1ccccc1NC(=O)Nc1cccc(C(C)=O)c1,"inconclusive [inhibitor, full curve, poor fit]",
O=C(Nc1ccc(F)cc1F)N1CCCN(c2ccc([N+](=O)[O-])cn2)CC1,,inactive: 5.25%
CCOc1ccc(N=C2NC(=O)S/C2=C\c2ccc(O)cc2)cc1,"inconclusive [inhibitor, partial curve]",
O=c1c2ccccc2nc2n1CCC2,,inactive: -7.57%
O=C(CSCc1ccc(F)cc1)NC1CCCC1,"inconclusive [inhibitor, full curve]",

SMILES,Potency,"activity change, negative = inhibition"
Cc1ccc(S(=O)(=O)N2CCCN(Cc3nc4ccccc4c(=O)[nH]3)CC2)cc1,"inconclusive [inhibitor, full curve, poor fit]",
Cc1nn(-c2ccccc2)c(C)c1/C=N/NC(=O)c1ccccc1O,,inactive: -10.1%
CC1(C)Cc2c(c(-c3ccccc3Cl)[nH]c(=O)c2C#N)CO1,"inconclusive [inhibitor, full curve]",
COc1ccccc1Nc1nc(N)nc(CN2CCOCC2)n1,"inconclusive [inhibitor, full curve, poor fit]",
CSc1nsc(/C=C/Nc2ccc(F)cc2F)c1C#N,,inactive: -1.25%
Cc1ccc(NC(=O)CCc2nc3ccccc3c(=O)[nH]2)cc1S(=O)(=O)N1CCOCC1,,inactive: -1.28%
CC#CCNCc1ccccc1,"inconclusive [inhibitor, single point]",
COc1cccc2cc(C(=O)NCc3ccc(Cl)cc3)c(=O)oc12,"inconclusive [inhibitor, single point]",
CN(NS(=O)(=O)c1ccc(F)cc1)c1ncc(C(F)(F)F)cc1Cl,"inconclusive [inhibitor, partial curve]",
COc1ccccc1CC(=O)NCCc1ccc(S(N)(=O)=O)cc1,"inconclusive [inhibitor, full curve, poor fit]",
C#CCNC(=O)C1=C[C@@H](C2CC2)C[C@@H](OCCCCO)O1,,inactive: -3.66%
CNS(=O)(=O)c1ccc(C(=O)NCC(=O)NCCc2ccc3c(c2)OCCO3)cc1,"inconclusive [inhibitor, full curve]",
CC(O)CCc1ccc(O)cc1 (stereo not drawn),"inconclusive [inhibitor, full curve]",
CCC(Sc1nnnn1-c1ccccc1)C(=O)Nc1nc2ccccc2s1 (stereo not drawn),"inconclusive [inhibitor, partial curve]",
COc1ccc2c(=O)c(-c3ccccc3)c(C)oc2c1,,inactive: -12.9%
C=C(NC(=O)C(=C)NC(=O)c1csc(C2=NC3c4csc(n4)C4NC(=O)c5csc(n5)C([C@@](C)(O)C(C)O)NC(=O)C5CSC(=N5)/C(=C\C)NC(=O)C(C(C)O)NC(=O)c5csc(n5)[C@]3(CC2)NC(=O)C(C)NC(=O)C(=C)NC(=O)C(C)NC(=O)C(C(C)CC)NC2C=Cc3c(C(C)O)cc(nc3C2O)C(=O)OC4C)n1)C(N)=O (stereo partly drawn),"inconclusive [inhibitor, full curve, poor fit]",
CC(C(=O)Nc1cc(C(F)(F)F)ccc1Cl)n1nnc2sc3c(c2c1=O)CCCC3 (stereo not drawn),,inactive: -4.87%
COC(=O)c1ccc(C(=O)OC)c(N)c1,"inconclusive [inhibitor, full curve]",
COc1ccc(Br)c(C(=O)N(C)CC(=O)Nc2ccc(N3CCOCC3)cc2)c1,"inconclusive [inhibitor, partial curve, poor fit]",
Cc1ccc(S(=O)(=O)N2CCOCC2)cc1C(=O)Nc1cc(Cl)ccc1N1CCOCC1,,inactive: -1.87%
O=S(=O)(c1ccccc1Cl)N1CCCC(c2nc(-c3cccnc3)no2)C1 (stereo not drawn),"inconclusive [inhibitor, full curve, poor fit]",

# — PubChem BioAssay AID485294 (National Center for Advancing Translational Sciences (NCATS), 2010)
